Over roughly 13,000 compounds, “IFI” has its median near 4; the highest 2% begin near 17. The list shows a part of the results.

The nature of the assay: GSK_TCMDC: Inhibition Frequency Index (IFI). The number of non-kinase HTS assays where a compound showed > 50 % inhibition, expressed as a percentage of the number of such assays in which the compound was tested (-0 is zero). The assay is classed as functional.
As for `N=C(N)CCN(Cc1ccc(Cl)cc1)c1ccc(Cl)cc1`, the IFI came out at 4.14%.

Regarding `Nc1ncnc2nc(-c3ccc(F)cc3)cc(-c3ccc(NC(=O)c4ccccc4)cc3)c12`, the IFI stood at 4.17%. Regarding `CCCCc1ccc(-c2ccc(-c3c(C)[nH]c(C)c(Br)c3=O)cn2)cc1`, the IFI was 0%. `Clc1ccc(Cn2nc(Br)nc2Br)c(Cl)c1` yielded an IFI of 3.57%.

For the compound `COc1cc(-c2cc(-c3ccc(S(C)(=O)=O)cc3)cnc2N)ccc1O`, the IFI came out at 4.84%. The figure for `O=C(Nc1ccc(Cn2nc(Cl)c(N3CCNCC3)cc2=O)cc1)Nc1ccc(-c2ccccc2)cc1` is 4.83%; for `O=C(Nc1ccc(N2CCNCC2)nc1)c1oc(-c2ccccc2)nc1C(F)(F)F` it is 10%.

For `O=C(NCCN1CCCC1)N1CCCN(c2ncnc3cc(-c4ccc(Cl)cc4)sc23)CC1`, the IFI turned out to be 7.69%. `O=c1[nH]c2c(cc1CNC1CCCCC1)c(-c1ccc(F)cc1)nn2-c1ccccc1` registered an IFI of 3.85%. The figure for `O=C(NC1CCN(Cc2ccccc2)CC1)c1ccc(-c2nc3cc(Cl)c(F)cc3[nH]2)s1` is 3.6%. The figure for `CN(c1ccc(NC(=O)c2cccc(F)c2)cc1)C1CCCN(Cc2cccc(O)c2)C1` (stereo not given) is 15.4%; for `Cc1cccc2nc(-c3cccc(-c4ccc(NC(=O)COC(C)C)cc4)c3)[nH]c12` it is 2.61%. The value for `O=C(Nc1cccc(F)c1)NC1CCN(c2ccnc3cc(Cl)ccc23)CC1` was 3.23%; that for `CCOC(=O)CCc1cc(F)c(F)c(OC[C@H](O)CNC(C)(C)C(O)c2ccc3ccccc3c2)c1` (stereo not given in full) was 7.76%. In turn, `CC(C)c1cc(Oc2c(I)cc(CCNCc3ccccc3)cc2I)ccc1O` yielded an IFI of 15.3%.

The compound `Fc1ccc2[nH]c(-c3cccc(-c4cccc(CN5CCN(c6ccncc6)CC5)c4)c3)nc2c1` gave an IFI of 13.6%. The figure for `CCCN1CCC(c2c[nH]c3ccc(NC(=O)Nc4cccc(Cl)c4Cl)cc23)CC1` is 4.32%; for `CN1CCc2cc(O)c(NS(=O)(=O)c3ccc(-c4ccc(Cl)cc4)cc3)cc2CC1` it is 4.38%. The value for `CC(C)N1CCN(C(CN2CCN(CCCOc3ccc4nonc4c3)CC2)c2ccc(F)cc2)CC1` (stereo not given) was 2.8%; that for `CCN(CC)CCN(Cc1ccc(-c2ccc(C(F)(F)F)cc2)cc1)C(=O)Cn1c(CCc2ccc(F)c(F)c2F)nc(=O)c2ccccc21` was 7.64%. The value for `Cc1cc(CNCCCCCNCc2ccc(Cl)cc2)ccc1O` was 0.75%; that for `CN1CCN(CCCN(Cc2cccc(-c3ccc(CNCc4ccc5c(c4)OCO5)cc3)c2)C(=O)Nc2ccccc2)CC1` was 9.56%; that for `COc1cc(COc2c(C)nc(N)nc2N)cc(OC)c1OC` was 0%. `Cc1ccc2nc(C)cc(N/N=C/c3cccc([N+](=O)[O-])c3)c2c1` had an IFI of 2.13%. The compound `CCN(CC)CC(O)c1cc(-c2ccc(OC)cc2)nc2cc(Cl)ccc12` (stereo not given) displayed an IFI of 2.94%.

`Nc1ncc(-c2ccc(NC(=O)Nc3cc(C(F)(F)F)ccc3F)cc2)c(N)n1` came in with an IFI of 0%. The figure for `O=C(NCCN1CCOCC1)c1ccc(-c2ccc(CNCCCc3ccccc3)cc2)nc1` is -0%. The compound `O=C(Nc1cccc(-c2cccc(-c3nc4cc(C(F)(F)F)ccc4[nH]3)c2)c1)c1ccoc1` registered an IFI of 6.19%. The value for `N#Cc1ccc2c(c1)CCN(CCC1CCC(NC(=O)c3cc4cccc(Cl)c4[nH]3)CC1)CC2` (stereo not given) was 10.5%; that for `CCN(CC)CCNc1ccc(Nc2ccnc3cc4ccccc4cc23)cc1` was 4.41%. The value for `FC(F)(F)c1ccc2[nH]c(-c3ccc(-c4ccc(CNCCc5ccncc5)cc4)cc3)nc2c1` was 12%; that for `Cc1[nH]c(C)c(-c2ccc(-c3cccc(OC(F)(F)F)c3)nc2)c(=O)c1Cl` was 4.55%. The figure for `CC1(C)NC(N)=NC(=N)N1OCCCOc1ccc(N)cc1` is 7.8%. `COc1ccc(CN2CCCN(Cc3cccc(NC(=O)c4ccc(-c5ccccc5)cc4)c3)CC2)cc1` showed an IFI of 8.11%. The figure for `CCOc1ccc2[nH]c(C)cc(=NN=Cc3ccncc3)c2c1` is 0.75%. The figure for `CC(C)C(=O)ONC1=NC(=N)N(OCCCOc2cc(Cl)c(Cl)cc2Cl)C(C)(C)N1` is 2.8%. The value for `O=C(Nc1ccc(CN2CCCCC2)cc1)c1ccc(COc2ccc([N+](=O)[O-])cc2)o1` was 3.88%; that for `Cn1c(NC(=O)C2CCC(CNC(=O)c3ccc(O)c(-c4ccc(Cl)c(Cl)c4)c3)CC2)nc2ccccc21` (stereo not given) was 2.26%. In turn, `Cc1ccc(-c2nnc(Nc3ccc(OCC(N)=O)cc3)c3ccccc23)cc1S(=O)(=O)NCC1CCCO1` (stereo not given) displayed an IFI of 0.67%. The figure for `COc1ccc2[nH]ccc(=NN=CC=Cc3ccccc3)c2c1` is 5.76%; for `CCOc1ccc(NC(=O)c2ccc(NCCCN3CC(C)CC(C)C3)c([N+](=O)[O-])c2)cc1` (stereo not given) it is 2.24%; for `CCC(CC(C)C(=O)O)=C(c1ccccc1)c1ccccc1` (stereo not given) it is -0%. The figure for `OC(CNCc1ccccc1OCc1ccccc1)c1cccc(I)c1` (stereo not given) is 8%. The value for `CC1CCN(Cc2c(O)ccc3c(CN4CCC(C)CC4)c(O)ccc23)CC1` was 6.98%; that for `Cc1cccc2nc(-c3ccc(-c4ccc(NC(=O)NCc5ccccc5)cc4)s3)[nH]c12` was 4.04%; that for `CC(C)COc1ccc(Cl)cc1Cc1nc(-c2nc3ccc(CN(C)C)cc3[nH]2)co1` was 10.2%. `CN(C(=O)Nc1ccc(F)cc1)C1CCN(CCCCCNC(=O)/C=C/c2ccc(Cl)c(Cl)c2)CC1` returned an IFI of 4.41%. The figure for `CN(C)c1ccc2nc(N)nc(N)c2c1Cl` is 1.43%; for `COc1ccc2nccc([C@@H](O)CN3CCC(NC(=O)C(c4cc5ccccc5o4)N4CCN(c5ccccc5OC)CC4)CC3)c2c1` (stereo not given in full) it is 2.78%. The figure for `CC(C)c1ccc(-c2nc3cc(Cl)cnc3[nH]2)cc1` is 8.33%. As to `CCOc1ccc(C2CCN(CCN3CCC(NC(=O)c4ccc(-c5ccc(C(F)(F)F)cc5)cc4)CC3)CC2)c(OCC2CC2)c1`, the IFI is 0.89%. `Fc1cc(Cl)ccc1Nc1ccnc2cc(-c3ccc(CNCCN4CCOCC4)o3)ccc12`: the IFI was 4.38%. In the case of `Cc1cc2ccccc2c(CON2C(=N)N=C(N)NC2(C)C)c1C`, the IFI was found to be 2.84%. The figure for `O=C(Cc1ccc(Cl)cc1)Nc1cc(Cl)ccc1Cn1cnc(N2CCNCC2)cc1=O` is 1.38%; for `Cc1cc(N[C@@H](CC(C)C)C(=O)NCc2cccs2)nc(NCCc2ccccc2)n1` it is 6.82%.

In turn, `Cc1cccc2nc(-c3cccc(-c4cccc(C(=O)N5CCCCC5CN5CCC(O)C5)c4)c3)[nH]c12` (stereo not given) displayed an IFI of 5.31%. Take `CC(=O)Nc1nc(C(=O)Nc2cccc(-c3cccc(-c4nc5cccc(C)c5[nH]4)c3)c2)cs1`: the IFI was found to be 6.09%.

As to `COc1ccc2ncc(F)c(CCN3C4CCC3CC(NCc3cc5c(cn3)OCS5)C4)c2n1` (stereo not given), the IFI turned out to be 3.73%. The figure for `CC(=O)OCCN1C(=O)c2ccc3c4c(ccc(c24)C1=O)C(=O)N(CCOC(C)=O)C3=O` is 1.41%. `COc1ccccc1C1CCN(C2CCC(NC(=O)/C=C/c3ccc(C(F)(F)F)cc3)CC2)CC1` (stereo not given) gave an IFI of 6.67%. The figure for `Cc1cc(NC(=O)NCCN2CCC(NC(=O)c3ccc(F)cc3)CC2)c2ccccc2n1` is 0.85%; for `CC(=O)Oc1ccc(C(=O)Oc2ccccc2C#CC#N)cc1OC(C)=O` it is 7.09%. The figure for `O=S(=O)(NC1CCCCN(Cc2ccccc2O)C1)c1ccc(C(F)(F)F)cc1` (stereo not given) is 0.7%.

As to `CCN(CC)C(=O)C1CCN(C(C(=O)N2CCN(CC(=O)N3CCCC3)CC2)c2cc3ccccc3o2)CC1` (stereo not given), the IFI was 0.75%. The value for `Oc1ccc(CCNc2nc(NCc3ccccc3-c3ccccc3)nc(N3CCCNCC3)n2)cc1` was 18.2%. The value for `Cc1ccnc(NC(c2cccc(Cl)c2Cl)c2ccc3cccnc3c2O)c1` (stereo not given) was 4.62%. The figure for `CN(C)CCCNCc1ccc(-c2ccc(CNCCc3ccccc3)cc2)cc1` is 5.48%. The compound `O=C1CCCN1CCCNCc1ccc(-c2ccc(-c3nc4cc(F)ccc4[nH]3)cc2)cc1` displayed an IFI of 6.8%. The value for `Cn1cc(C2CCN(CCCCCNC(=O)/C=C/c3ccc(Cl)c(Cl)c3)CC2)c2cc(O)ccc21` was 3.68%; that for `Cc1ccc2[nH]c3c(c2c1)CC(C(=O)NCCC(C)C)NC31CCN(Cc2ccccc2)CC1` (stereo not given) was 4.23%; that for `CN(C)CC(O)COc1ccc(Nc2ncc([N+](=O)[O-])c(Nc3ccccc3O)n2)cc1` (stereo not given) was 6.21%. Compound `OC(CNc1ccnc(Nc2cccc(Cl)c2)n1)c1cccc(C(F)(F)F)c1` (stereo not given) came in with an IFI of 13.3%. The figure for `O=C(NC1CCCCC1)N(CCCn1ccnc1)Cc1csc(-c2ccc(CNCc3ccccc3)cc2)n1` is 4.05%; for `CCN(CC)CCOc1ccc(NC(=O)c2oc3ccccc3c2C=Cc2ccccc2)cc1` it is 18.5%; for `CN1CCN(C(C(=O)NCc2cc(Cl)cc(Cl)c2)c2ccccc2-c2ccsc2)CC1` (stereo not given) it is 4.96%. The figure for `COc1ccc(C2CCN(CCCCNC(=O)c3ccc(NC(=O)c4ccc(Cl)cc4)cc3)CC2)c(OC)c1` is 6.14%. The value for `O=S(=O)(c1ccc(OCc2ccc(Cl)cc2)cc1)c1cc2c(c(-c3ccc(F)cc3)c1)CCN(CC1CC1)CC2` was 3.6%; that for `COc1ccccc1/C=C/C(=O)NCCC1CCN(CCCCCNC(=O)/C=C/c2ccc(Cl)c(Cl)c2)CC1` was 6.99%. Compound `Cc1cc(=NN=Cc2ccc(Cl)cc2)c2cccc(C)c2[nH]1` showed an IFI of 1.45%.

`O=C(N[C@@H](Cc1ccccc1)[C@H](O)CNC1CCCCC1)c1cc(C2CCCC2)cc(N2CCCC2=O)c1` showed an IFI of 3.05%. The value for `CCN(CC)CCOc1ccc(C(O)(C#CC(O)(c2ccc(Br)cc2)c2ccc(OCCN(CC)CC)cc2)c2ccc(Br)cc2)cc1` (stereo not given) was 16.2%. The figure for `Cc1nc(-c2nc(N3CCC(C(N)=O)CC3)ncc2-c2ccsc2)sc1C` is 3.41%; for `COc1ccc(CCCc2nc(N)nc(N)c2-c2ccc(Cl)cc2)cc1` it is 2.99%; for `COc1c(C2CCN(CCCCNC(=O)c3ccc(-c4ccc(C#N)cc4)cc3)CC2)ccc2c1C(C)(C)CCC2(C)C` it is 11.4%. Consider `NS(=O)(=O)c1cccc(-c2ccc3c(O)ncnc3c2)c1`, for which the IFI was 0%. The figure for `O=S(=O)(c1ccccc1)n1ccc2cc(Nc3ncnc4cc(C#C[C@H]5CCCN5)sc34)ccc21` is 8.57%. With `CCN(CC)/C(=N\C(=N)NCCCCCCNC(=N)/N=C(\Nc1ccc(Cl)cc1)N(CC)CC)Nc1ccc(Cl)cc1`, the IFI stood at 2.24%.

The compound `Cc1ccc(C(=O)Nc2ccc(Nc3ccnc4cc(-c5ccccn5)ccc34)cc2O)cc1` showed an IFI of 10.3%. The value for `COc1ccc(C(c2ccc(N(C)C)cc2)c2ccc(N(C)C)cc2)cc1` was 18.2%; that for `NC1=NC(Cc2ccccc2)N(c2ccc(Cl)cc2)C(N)=N1` (stereo not given) was 0%.

The values are drawn from ChEMBL document CHEMBL1157539, “Thousands of chemical starting points for antimalarial lead identification” (Nature, 2010).
